Residue numbers refer to the chain shown, from its start.
T1: CD79b on the surface of human lymphoma cell lines (human, UniProt P40259 29-229)
T1 sequence (looked up): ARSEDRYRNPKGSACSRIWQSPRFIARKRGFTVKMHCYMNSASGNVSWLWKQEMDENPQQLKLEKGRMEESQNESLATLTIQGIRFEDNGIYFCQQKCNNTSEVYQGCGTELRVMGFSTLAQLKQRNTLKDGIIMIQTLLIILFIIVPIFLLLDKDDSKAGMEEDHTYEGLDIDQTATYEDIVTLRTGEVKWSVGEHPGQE

T2: recombinant human CD79b extracellular domain protein (human, UniProt P40259 29-159)
T2 construct: Bought protein; also called CD79b ECD; human CD79b-ECD
T2 sequence: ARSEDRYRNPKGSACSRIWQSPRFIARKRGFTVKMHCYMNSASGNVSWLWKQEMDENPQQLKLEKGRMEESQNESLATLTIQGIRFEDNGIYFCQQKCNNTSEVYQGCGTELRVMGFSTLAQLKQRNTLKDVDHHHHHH

B1: AS11161-ADC (other)
heavy: QVQLVQSGAEVKKPGSSVKVSCKTSGNTFTSYGINWVRQAPGQGLEWMGEIFPRSGNIYYNEKFKGKVTITADKSTSTAYMELSSLRSEDTAVYYCAKGGTGDFDYWGQGTLVTVSS[human IgG1 constant region left out]
light: DVVMTQSPLSLPVTLGQPASISCRSSQNIVHSDGNTYLEWYQQRPGQSPRLLIYKVSFRLSGVPDRFSGSGSGTDFTLKISRVEAEDVGVYYCFQGSHVPWTFGGGTKVEIKRTVAAPSVFIFPPSDEQLKSGTASVVCLLNNFYPREAKVQWKVDNALQSGNSQESVTEQDSKDSTYSLSSTLTLSKADYEKHKVYACEVTHQGLSSPVTKSFNRGEC
modifications: drug conjugate made by the method of Example 3 (BMP-vcMMAE); positions not given
B2: AS11164-ADC (other)
heavy: B1 heavy
light: B1 light with V3L, R50K
modifications: drug conjugate made by the method of Example 3 (BMP-vcMMAE); positions not given
B3: AS11252-ADC (other)
heavy: B1 heavy with V20L, R38K, M48I, K67R
light: B1 light
modifications: drug conjugate made by the method of Example 3 (BMP-vcMMAE); positions not given
B4: AS11254-ADC (other)
heavy: B1 heavy with S16A, R38K, K67R
light: B1 light
modifications: drug conjugate made by the method of Example 3 (BMP-vcMMAE); positions not given
B5: AS11259-ADC (other)
heavy: B1 heavy with R38K, M48I, K67R
light: B1 light
modifications: drug conjugate made by the method of Example 3 (BMP-vcMMAE); positions not given
B6: AS11259-ADC-001 (other, DAR 4.0)
heavy: B1 heavy with R38K, M48I, K67R
light: B1 light
modifications: linker-drug 1 (BMP-vcMMAE) on cysteines freed by TCEP reduction; positions not given
notes: Antibody-drug conjugate of AS11259 (IgG1) with linker-drug 1; average DAR 4.0
B7: AS11259-ADC-002 (other)
heavy: B1 heavy with R38K, M48I, K67R
light: B1 light
modifications: linker-drug 2 on cysteines freed by TCEP reduction; positions not given
notes: Antibody-drug conjugate of AS11259 with linker-drug 2; DAR not detected
B8: AS11259-ADC-003 (other)
heavy: B1 heavy with R38K, M48I, K67R
light: B1 light
modifications: linker-drug 3 on cysteines freed by TCEP reduction; positions not given
notes: Antibody-drug conjugate of AS11259 with linker-drug 3 (DM1 based); DAR not detected
B9: AS11259-ADC-004 (other, DAR 4.0)
heavy: B1 heavy with R38K, M48I, K67R
light: B1 light
modifications: linker-drug 4 on cysteines freed by TCEP reduction; positions not given
notes: Antibody-drug conjugate of AS11259 with linker-drug 4; average DAR 4.0
B10: AS11259-ADC-005 (other, DAR 4.2)
heavy: B1 heavy with R38K, M48I, K67R
light: B1 light
modifications: linker-drug 5 on cysteines freed by TCEP reduction; positions not given
notes: Antibody-drug conjugate of AS11259 with linker-drug 5; average DAR 4.2
B11: AS11259-ADC-006 (other, DAR 4.1)
heavy: B1 heavy with R38K, M48I, K67R
light: B1 light
modifications: linker-drug 6 on cysteines freed by TCEP reduction; positions not given
notes: Antibody-drug conjugate of AS11259 with linker-drug 6; average DAR 4.1
B12: AS11259-ADC-007 (other)
heavy: B1 heavy with R38K, M48I, K67R
light: B1 light
modifications: linker-drug 7 on cysteines freed by TCEP reduction; positions not given
notes: Antibody-drug conjugate of AS11259 with linker-drug 7; DAR not detected
B13: AS11259-ADC-008 (other, DAR 4.1)
heavy: B1 heavy with R38K, M48I, K67R
light: B1 light
modifications: linker-drug 8 on cysteines freed by TCEP reduction; positions not given
notes: Antibody-drug conjugate of AS11259 with linker-drug 8; average DAR 4.1
B14: AS11259-ADC-010 (other, DAR 4.0)
heavy: B1 heavy with R38K, M48I, K67R
light: B1 light
modifications: linker-drug 9 on cysteines freed by TCEP reduction; positions not given
notes: Antibody-drug conjugate of AS11259 with linker-drug 9; average DAR 4.0
B15: AS11259-ADC-011 (other, DAR 2.1)
heavy: B1 heavy with R38K, M48I, K67R
light: B1 light
modifications: linker-drug 10 on cysteines freed by TCEP reduction; positions not given
notes: Antibody-drug conjugate of AS11259 with linker-drug 10; average DAR 2.1
B16: AS11259-ADC-0012 (other, DAR 1.7)
heavy: B1 heavy with R38K, M48I, K67R
light: B1 light
modifications: linker-drug 1 (BMP-vcMMAE) on cysteines freed by partial reduction; positions not given; linker-drug 1 (BMP-vcMMAE) on cysteines freed by partial reduction (an average of two pairs of disulfide bonds reduced); positions not given
notes: average DAR 1.7; Printed once as AS11250-ADC-0012; also called AS11250-ADC-0012

What follows are binders tested against T1, CD79b on the surface of human lymphoma … (assay: cell-based or functional assay).

B1 and B2 are within 1.5-fold of each other in “Inhibitory effect on the lymphoma cell proliferation IC50, BJAB” value (shortened to “Inhibitory effect … BJAB”): 0.0122 µg/mL for the first, 0.0153 µg/mL for the second.

B3 and B4 are within 1.5-fold of each other in “Inhibitory effect … BJAB” value: 0.0116 µg/mL for the first, 0.0154 µg/mL for the second.

With B5 the “Inhibitory effect … BJAB” value was 0.0104 µg/mL.

Going from B1 to B2, the “Inhibitory effect on the lymphoma cell proliferation IC50, DoHH2” value (“Inhibitory effect … DoHH2” below) rises from 0.006 µg/mL to 0.00917 µg/mL (1.5-fold).

B3 and B4 are within 1.5-fold of each other in “Inhibitory effect … DoHH2” value: 0.00801 µg/mL for the first, 0.0086 µg/mL for the second.

In the case of B5, the “Inhibitory effect … DoHH2” value is reported as 0.0089 µg/mL.

Going from B1 to B2, the “Inhibitory effect on the lymphoma cell proliferation IC50, Granta-519” value (shortened to “Inhibitory effect … Granta-519”) rises from 0.0315 µg/mL to 0.0486 µg/mL (1.5-fold).

B3 and B4 are within 1.5-fold of each other in “Inhibitory effect … Granta-519” value: 0.0446 µg/mL for the first, 0.0477 µg/mL for the second.

For B5, the “Inhibitory effect … Granta-519” value was 0.0334 µg/mL.

Going from B1 to B2, the “Inhibitory effect on the lymphoma cell proliferation IC50, Ramos” value (from here on “Inhibitory effect … Ramos”) rises from 0.00504 µg/mL to 0.0081 µg/mL (1.6-fold).

Going from B3 to B4, the “Inhibitory effect … Ramos” value rises from 0.00478 µg/mL to 0.0083 µg/mL (1.7-fold).

With B5 the “Inhibitory effect … Ramos” value was 0.00485 µg/mL.

B1 and B2 are within 1.5-fold of each other in “Inhibitory effect on the lymphoma cell proliferation IC50, SU_DHL-4” value (“Inhibitory effect … SU_DHL-4” below): 0.0159 µg/mL for the first, 0.0176 µg/mL for the second.

B3 and B4 are within 1.5-fold of each other in “Inhibitory effect … SU_DHL-4” value: 0.0142 µg/mL for the first, 0.0165 µg/mL for the second.

With B5 the “Inhibitory effect … SU_DHL-4” value was 0.016 µg/mL.

B1 and B2 are within 1.5-fold of each other in “Inhibitory effect on the lymphoma cell proliferation IC50, U-698-M” value (from here on “Inhibitory effect … U-698-M”): 0.0188 µg/mL for the first, 0.0204 µg/mL for the second.

B3 and B4 are within 1.5-fold of each other in “Inhibitory effect … U-698-M” value: 0.0248 µg/mL for the first, 0.0192 µg/mL for the second.

In the case of B5, the “Inhibitory effect … U-698-M” value is reported as 0.0215 µg/mL.

Going from B1 to B2, the “Inhibitory effect on the lymphoma cell proliferation IC50, WSU-DLCL2” value (from here on “Inhibitory effect … WSU-DLCL2”) rises from 0.0159 µg/mL to 0.0246 µg/mL (1.5-fold).

B3 and B4 are within 1.5-fold of each other in “Inhibitory effect … WSU-DLCL2” value: 0.0209 µg/mL for the first, 0.024 µg/mL for the second.

For B5, the “Inhibitory effect … WSU-DLCL2” value was 0.0165 µg/mL.

Each binder was assayed against T2, recombinant human CD79b extracellular … (assay: indirect ELISA, plate coated with CD79b antigen).
Method: An ELISA anti-antibody was added to bind with the antibody or ADC antibody bound to the solid phase antigen, and unbound anti-antibody was removed by washing. Substrate solution was added, and then the optical density (OD) value at 450 nm/630 nm was read with a microplate reader T, based on which a curve was plotted, and the EC₅₀ was calculated.

B6 and B7 are within 1.5-fold of each other in EC50: 0.0317 µg/mL for the first, 0.0241 µg/mL for the second.

Compared with B8, B9 is 2-fold higher in EC50: 0.0162 µg/mL for the first, 0.0322 µg/mL for the second.

B10 and B11 are within 1.5-fold of each other in EC50: 0.0469 µg/mL for the first, 0.0502 µg/mL for the second.

First: B12
Second: B13
The EC50 of the first is 2.2-fold higher: 0.0629 µg/mL for the first, 0.029 µg/mL for the second.

B14 and B15 are within 1.5-fold of each other in EC50: 0.0232 µg/mL for the first, 0.0236 µg/mL for the second.

B16 gave an EC50 of 0.0314 µg/mL.

Molecular target: T1, CD79b on the surface of human lymphoma …
Assay: cell-based or functional assay
Remark: another data set of the same source

Going from B6 to B7, the “inhibition of cell proliferation IC50, Ramos” value (“inhibition” below) rises from 0.0055 µg/mL to 0.0145 µg/mL (2.6-fold).

Compared with B8, B9 is 24-fold lower in “inhibition” value: 0.0702 µg/mL for the first, 0.0029 µg/mL for the second.

B10 and B11 are within 1.5-fold of each other in “inhibition” value: 0.0052 µg/mL for the first, 0.005 µg/mL for the second.

Going from B12 to B13, the “inhibition” value falls from 0.0081 µg/mL to 0.0024 µg/mL (3.4-fold).

Going from B14 to B15, the “inhibition” value rises from 0.0039 µg/mL to 0.0102 µg/mL (2.6-fold).

B16 was tested, and the “inhibition” value was 0.0132 µg/mL.

Source: patent US20210388082A1 (NEWBIO THERAPEUTICS, published 2021)
